# Measured values: publication PMC4242493
# The list shows a part of the results. The list includes weakly bound sequences.
# Molecular target: MaxL homodimer (UniProt P61244)
# Assay: universal protein-binding microarray (PBM)
# Conditions: PBS-based mixture, 10 nM His-tagged protein dimer, 2% milk, 200 ng/uL BSA, 50 ng/uL salmon testes DNA, 0.02% TX-100; detection with Alexa 488 anti-His …; high values mean tight binding; most listed sequences are background and not binding sites; double strand, one strand shown
# Sequence of UniProt P61244 (P61244 whole entry): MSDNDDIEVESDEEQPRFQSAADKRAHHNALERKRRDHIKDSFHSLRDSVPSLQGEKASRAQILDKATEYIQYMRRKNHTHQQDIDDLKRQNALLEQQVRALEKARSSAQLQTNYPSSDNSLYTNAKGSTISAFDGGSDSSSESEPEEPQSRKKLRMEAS
row,Sequence,binding signal (normalized occupancy)
1,ACCTTAAC,0.0771
2,AGGCTAAA,0.071
3,GCCTCAGA,0.0726
4,TCCGTTCA,0.0689
5,GGGCCTAC,0.0673
6,AACAATCG,0.0715
7,AGTTAAGA,0.0714
8,AGCGACAA,0.0793
9,AAGCCACG,0.0871
10,ATCGATAG,0.0826
11,GCTCAGGA,0.07
12,ATATATAA,0.0904
13,GTACATGA,0.0843
14,AGACGAAC,0.0726
15,AAATGGTT,0.072
16,AATTCGGT,0.0697
17,GCTTCTGA,0.073
18,AGTCGCGA,0.0755
19,AAATAGTT,0.0744
20,ATAGCAGG,0.0727
21,AGGGTAAA,0.0802
22,ATCCAACA,0.0785
23,ACAAGCAT,0.0808
24,GAATTCCA,0.0755
25,GGAAATTA,0.0817

row,Sequence,binding signal (normalized occupancy)
1,CTTGGGGC,0.0692
2,CCTAGTCC,0.0726
3,GACGTATA,0.0778
4,ACCTGACA,0.0789
5,ATCCTGTC,0.0749
6,AACTTATC,0.075
7,CTGAAGAC,0.0709
8,ACCCCCCA,0.0865
9,AGATTCGG,0.0722
10,AAGCCGCG,0.0688
11,CTGCCTAC,0.072
12,AGCACGGA,0.0813
13,AATCCAAC,0.077
14,GAACGCTA,0.0771
15,CATGAGAG,0.0941
16,CTAACGCA,0.0719
17,ATTGTACC,0.08
18,CGGTTGGA,0.0701
19,AAGTCAAG,0.0765
20,GTTCCTAA,0.0746
21,GGTTGAAC,0.0742
22,CTCGGGTA,0.0741
23,GATTTGTA,0.0761
24,AAGGTAAC,0.0807
25,CAACTAGC,0.0711

row,Sequence,binding signal (normalized occupancy)
1,CTGTTTGA,0.0796
2,AGGATGTA,0.0795
3,CTATTCGC,0.0758
4,GCAAGCAA,0.0714
5,CCAGACCG,0.0691
6,AATCGAAG,0.075
7,CCACCTAC,0.0786
8,CCAAACGG,0.0658
9,CTGAGTCC,0.0714
10,GCTAGAAA,0.0744
11,AGAACATG,0.0823
12,GAACGTCC,0.0682
13,ACCCCTGA,0.087
14,GGATCAAC,0.0758
15,ACCTTACT,0.0762
16,ACGACCCA,0.0801
17,GTCTACTA,0.075
18,AACAGTTC,0.0688
19,ACTCGAAT,0.0723
20,GACGTTTA,0.0757
21,TAAGCATA,0.075
22,GAACAATC,0.0751
23,CTGTCTAA,0.0729
24,AGTTAGCA,0.0755
25,CCGAAAGA,0.0675

row,Sequence,binding signal (normalized occupancy)
1,ATTGGCTA,0.0713
2,ATTACGCG,0.0858
3,ACAAGTCG,0.0779
4,AAGTACCT,0.0772
5,CGCCTCGC,0.0721
6,GCATTAAC,0.077
7,AGAATCGC,0.0713
8,GGGCCACC,0.0677
9,CAGTTGGA,0.071
10,ACGCATGG,0.136
11,AGCGAGTC,0.0635
12,AGGAACCA,0.0734
13,CATCTGCC,0.0795
14,TATAATGA,0.0792
15,CACACTCG,0.0787
16,GGTGGTTA,0.0838
17,GCCCTAGA,0.0705
18,AATGAGTA,0.077
19,ATGTATCG,0.085
20,ACGGATCG,0.0738
21,AGGCGGCA,0.0675
22,GTGAGGAA,0.0743
23,TCCCTCAA,0.0715
24,ATCCTTCC,0.0759
25,GCAGTCTA,0.071

row,Sequence,binding signal (normalized occupancy)
1,GTATAGAC,0.077
2,AGAAATAT,0.0848
3,ATGCACTA,0.0886
4,GAAAACGC,0.0738
5,ACCCACCA,0.088
6,ACACCCTA,0.0857
7,AACGTTGA,0.0764
8,GTAATGTA,0.0822
9,CCGATAAA,0.0723
10,CAGAAGTA,0.0747
11,ACGCGTCA,0.0796
12,GAAGAGAC,0.0685
13,CCGTGAAG,0.0739
14,ATAGTATG,0.0808
15,GGGACGGA,0.0735
16,CACTATTA,0.0809
17,GCCTTACC,0.0773
18,GTCTTGGA,0.0715
19,ATTGCCGC,0.0717
20,AATTATAT,0.0809
21,AGCGATGC,0.0746
22,AAATGACC,0.0764
23,ATACTGAT,0.0847
24,CTTAGTCA,0.075
25,GAAGGCTA,0.0751

row,Sequence,binding signal (normalized occupancy)
1,AACAGTAA,0.0738
2,CCACCTTC,0.0757
3,CGCATACA,0.0849
4,TGTGAAAA,0.0766
5,GTTAAGTA,0.0779
6,AAACCGAT,0.0702
7,CTGCCACA,0.0754
8,AGCTTCGC,0.0661
9,AAGGAACC,0.0702
10,AAGACGAA,0.0705
11,AACTACCT,0.0747
12,ACCTACAC,0.0794
13,AGACCCGC,0.0755
14,ATATTTGC,0.079
15,ACCAATCA,0.0744
16,CAGCTGGG,0.0695
17,CTCTAAAC,0.0761
18,GCGTCAAA,0.0731
19,CTCCATGC,0.0969
20,AGGCCTTC,0.067
21,CCGGTCCA,0.0731
22,ACGTAGTC,0.0749
23,ATTATTGC,0.0804
24,TCAACTAA,0.0725
25,GCGGCTAC,0.0666

row,Sequence,binding signal (normalized occupancy)
1,AGACAAGG,0.0731
2,ACGACGAC,0.0761
3,CCCGAAGG,0.0689
4,GCATCCGC,0.0757
5,CGTGAACA,0.0832
6,ATGATCTA,0.0825
7,ATCCATTC,0.079
8,GATTCGAA,0.0723
9,AATGTCAT,0.0821
10,CCCCCGAA,0.0819
11,CCTACCGA,0.0788
12,AAATGCCA,0.0768
13,AGCCGCAG,0.0658
14,GAGGCAAA,0.0738
15,GACTGTTA,0.0767
16,AGTGTACA,0.0789
17,AACCGCGG,0.0664
18,CAGGTCTC,0.0718
19,GCACTTAC,0.0761
20,AACGGGCA,0.0704
21,ACCGACCG,0.0698
22,TATAAACA,0.0776
